From article PMC4336329 (PLoS ONE, 2015)
Hit rate of the full screen: of about 310,000 compounds, about 14,000 (4.5%) showed an effect of 50% or more. The effect is printed as a negative number. Some of the results follow. Where a SMILES comes first, the peptide text is derived from it. The star is where a group is joined. Boc = CC(C)(C)OC(=O)*

Biological target: human ether-à-go-go-related gene (hERG) potassium channel (human, UniProt Q12809)
Experiment: primary screen, population patch clamp on CHO cells stably expressing hERG
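Also: peak tail current of the secondary pulse compared with the same well before compound.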

Chain of human ether-à-go-go-related gene (hERG) potassium channel (Q12809 whole entry, looked up): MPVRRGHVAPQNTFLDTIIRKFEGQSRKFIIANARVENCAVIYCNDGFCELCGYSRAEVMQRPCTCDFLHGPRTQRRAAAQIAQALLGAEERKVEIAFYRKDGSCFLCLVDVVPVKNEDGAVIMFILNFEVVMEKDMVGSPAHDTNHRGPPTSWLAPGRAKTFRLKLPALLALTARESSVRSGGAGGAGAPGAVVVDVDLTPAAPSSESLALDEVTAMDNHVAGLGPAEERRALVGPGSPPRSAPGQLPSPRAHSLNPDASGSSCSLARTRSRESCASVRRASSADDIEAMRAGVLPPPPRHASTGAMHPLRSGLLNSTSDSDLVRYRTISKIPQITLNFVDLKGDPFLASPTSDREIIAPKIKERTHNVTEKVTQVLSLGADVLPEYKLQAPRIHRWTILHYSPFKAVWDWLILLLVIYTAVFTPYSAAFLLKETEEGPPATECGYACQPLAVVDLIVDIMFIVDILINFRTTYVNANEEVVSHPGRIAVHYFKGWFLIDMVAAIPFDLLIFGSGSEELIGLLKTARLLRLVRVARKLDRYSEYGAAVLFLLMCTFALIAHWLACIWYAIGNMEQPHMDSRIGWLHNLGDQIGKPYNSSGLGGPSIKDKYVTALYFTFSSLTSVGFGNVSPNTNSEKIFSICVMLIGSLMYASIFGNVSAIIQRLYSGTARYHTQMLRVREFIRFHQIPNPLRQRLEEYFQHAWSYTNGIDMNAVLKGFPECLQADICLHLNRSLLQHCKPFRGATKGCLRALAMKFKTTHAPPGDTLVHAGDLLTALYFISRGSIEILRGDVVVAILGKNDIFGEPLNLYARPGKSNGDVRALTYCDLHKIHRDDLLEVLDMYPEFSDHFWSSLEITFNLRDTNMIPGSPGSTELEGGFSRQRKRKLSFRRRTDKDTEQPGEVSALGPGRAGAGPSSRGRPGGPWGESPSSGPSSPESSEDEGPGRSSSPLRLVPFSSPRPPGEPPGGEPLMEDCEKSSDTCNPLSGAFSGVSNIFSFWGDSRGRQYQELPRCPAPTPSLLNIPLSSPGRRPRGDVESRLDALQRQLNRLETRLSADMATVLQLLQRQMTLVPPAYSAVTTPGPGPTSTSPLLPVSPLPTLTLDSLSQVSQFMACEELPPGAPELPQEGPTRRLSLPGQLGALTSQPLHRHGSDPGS

| SMILES | hERG current change (%, negative = inhibition) at 10uM |
| --- | --- |
| CCCc1cc(=O)[nH]c(SCC(=O)N2N=C(c3ccc(Cl)cc3)CC2c2ccco2)n1 (centres unmarked) | 11.2% |
| COc1cc(NC(=O)c2cc(OC)c(OC)c(OC)c2)c(OC)cc1NC(=O)CN1CCCCC1 | 0.976% |
| CCOC(=O)N1CCN(C(=O)/C(=C/c2cccc3ccccc23)NC(=O)c2ccc(OC)cc2)CC1 | -50.9% |
| O=C(c1ccco1)N1CCN(C(=S)Nc2ccccc2Cl)CC1 | 1.03% |
| O=C1C2CSCN2C(=O)CN1CCCN1CCN(C(c2ccccc2)c2ccccc2)CC1 (centres unmarked) | -53.6% |
| COc1nonc1NC(=O)CSc1nc2ccccc2[nH]1 | 11.1% |
| CC(C)C1NC(=S)N(Cc2ccccc2)C1=O (centres unmarked) | 5.2% |
| CN(Cc1ccccc1)C(=O)Cc1ccccc1 | 10.5% |
| O=C(Nc1ccc(N2CCCC2)c(Cl)c1)c1ccco1 | -23.5% |
| CCOC(=O)c1c(-c2ccc(C)cc2)csc1NC(=O)c1cc2ccccc2oc1=O | 8.1% |
| CC(=O)C1=NN(c2ccccc2)C(c2ccc3c(c2)OCO3)N1c1ccc(N2CCOCC2)cc1.CC(C)O (centres unmarked) | 13.9% |
| COc1ccc(S(=O)(=O)Nc2cccc(-n3cnnn3)c2)cc1OC | 13.3% |
| O=C1/C(=C\c2ccccn2)SC(=S)N1Nc1ncc(C(F)(F)F)cc1Cl | -1.01% |
| COc1ccc2cc(C(c3nnnn3C3CCCC3)N3CCOCC3)c3nnnn3c2c1 (centres unmarked) | -51.7% |
| CC1(C)C(c2cccs2)=[N+]([O-])C2(CCCCC/C2=N\NC(N)=S)N1O (centres unmarked) | 5.65% |
| CC(=O)NCCC(=O)Nc1cccc(S(=O)(=O)N(C)c2ccccc2)c1 | 9.95% |
| CCSCCOC(=O)C1=C(C)NC(=O)NC1c1cc(OC)ccc1OC (centres unmarked) | -0.422% |
| CC(C)(C)NC(=O)CSc1nnc(-c2c[nH]c3ccccc23)o1 | 5.85% |
| Cc1sc(NC(=O)CN(Cc2ccc(F)cc2)C(=O)C(C)C)c(C(N)=O)c1C | -6.56% |

| SMILES | hERG current change (%, negative = inhibition) at 10uM |
| --- | --- |
| CC(=O)C1=C(c2ccccc2)NC(=S)NC1c1cc(Cl)c(OC(C)C)c(Cl)c1 (centres unmarked) | -17.7% |
| O=C(c1ccccc1)c1nnc(-c2ccccc2F)o1 | -32.2% |
| O=C(NCCCN1CCN(c2ccccc2F)CC1)C1CCCN(S(=O)(=O)c2cnc[nH]2)C1 (centres unmarked) | 22.7% |
| CCCCCN1C=CC(=C2C(=O)c3ccccc3C2=O)C=C1 | -61% |
| CC(=O)C1C(=O)C=C(c2cccs2)CC1c1ccccc1 (centres unmarked) | 0.0854% |
| COC1=C(Nc2ccc(OC)cc2)C(=O)c2ccccc2C1=O | -22.6% |
| Cc1cc(=O)[nH]c(N2CCN(c3ccc(Cl)cc3)CC2)n1 | 2.52% |
| Cc1cc(C)nc(CCNC(=O)CC2C(=O)NCCN2Cc2ccccc2)n1 (centres unmarked) | 16.2% |
| CCC(=O)Nc1cc(Cl)ccc1N1CCN(C(=O)CC)CC1 | -24.9% |
| CSCCC(NC(=O)OC(C)(C)C)C(=O)NC(CC(C)C)C(N)=O (stereo not drawn) (Boc-Met-Leu-NH2; configuration not given here) | 15% |
| C=CCN1C=C2C(=O)C(C)(OC(=O)CCC(=O)OC)C(=O)C=C2C=C1C1CC1 (centres unmarked) | 8.95% |
| CCOC(=O)c1c(N)nn(C(=O)C(C)C)c1-c1ccc(OC)cc1 | 22.1% |
| Cn1c(SCC(=O)N2CCCc3ccccc32)nnc1-c1c[nH]c2ccccc12 | -10.2% |
| Fc1cccc(Cc2noc(CN3CCSCC3)n2)c1 | 29.1% |
| COc1ccccc1C(=O)Nc1ccc(S(=O)(=O)Nc2onc(C)c2C)cc1 | -3.03% |
| Cn1c(-c2nonc2N)nc2ccccc21 | 5.08% |
| CCCN1C(=O)C(NC(=O)c2ccncc2)(C(F)(F)F)C2=C1CC(C)(C)CC2=O (centres unmarked) | 4.89% |
| CC1CCCCN1c1ncnc2ccccc12.Cl (centres unmarked) | -7.46% |
| O=C(NCc1ccccc1F)c1ccc(S(=O)(=O)Nc2cccc(C(F)(F)F)c2)cc1 | 0.298% |

| SMILES | hERG current change (%, negative = inhibition) at 10uM |
| --- | --- |
| Cc1ccc(CN(C)C(=O)c2ccccc2NC(=O)c2ccccc2)o1 | 6.66% |
| CC(=O)N1CCN(c2ccc(NCc3ccc(Br)o3)cc2)CC1 | -14.6% |
| COc1ccc(N2CCN(C3CCCN(Cc4ccccc4OCCO)C3)CC2)cc1 (centres unmarked) | -24.1% |
| CCCCOC(=O)C1=C(C)NC2(O)c3ccccc3C(=O)C12O (centres unmarked) | 10.1% |
| CCOc1ccc(-n2c(-c3ccco3)n[nH]c2=S)cc1 | 2.48% |
| Cc1cc(OCCN2CCN(S(=O)(=O)c3ccccc3F)CC2)ccc1C(C)C | -15.3% |
| COc1ccc(NC(=O)CN(C)C(=O)c2cc(C3CC3)nn2-c2ccccc2)cc1 | -24.1% |
| COc1ccc(C(=O)NCCNc2nc3c(C)cccc3cc2C#N)cc1OC | 7.58% |
| O=S(=O)(CCN1CCCCC1)Oc1ccc(Cl)cc1Cl | -28.5% |
| CN(C(=O)Nc1ccccc1)C1CCS(=O)(=O)C1 (centres unmarked) | 2.6% |
| Cc1ccc(NC(=O)/C(=C/c2ccncc2)NC(=O)c2ccccc2)cc1 | -9.82% |
| CCOC(=O)c1cnc(-n2cc(C)cn2)nc1Nc1ccccc1OC | -8.01% |
| O=C(/C=C/c1ccc(Cl)cc1Cl)NCc1ccco1 | -9.09% |
| CCCCn1c(-c2nonc2N)nc2ccccc21 | 10.9% |
| CCOC(=O)N1CCN(C(=O)CSc2ccc(-c3ccc(OC)c(OC)c3)nn2)CC1 | -14.4% |
| Cc1c(Cl)cccc1NC(=S)Nn1cnnc1 | 17.1% |
| CN1C(=O)NC(c2ccccc2)C2=C1CN(c1cccc(C(F)(F)F)c1)C2=O (centres unmarked) | -40.9% |
| O=C(CC(c1ccccc1O)N1CCCCC1)N1CCCCC1 (centres unmarked) | -4.19% |
